Data reported in article PMC10195794.
These are yes or no findings as the source states them, for the method shown. Binding seen in cells or lysates may run through a third protein. Some entries that bind do so weakly or less than the wild type.

Protein sequences, listed by entry. Tags and fused reporters are not part of them. Lines headed by an entry give the natural chain unless they say otherwise; changes in a name come on top. Chains listed by the source or under a name are the forms on record and can include a tag or linker.
UniProt Q969H0: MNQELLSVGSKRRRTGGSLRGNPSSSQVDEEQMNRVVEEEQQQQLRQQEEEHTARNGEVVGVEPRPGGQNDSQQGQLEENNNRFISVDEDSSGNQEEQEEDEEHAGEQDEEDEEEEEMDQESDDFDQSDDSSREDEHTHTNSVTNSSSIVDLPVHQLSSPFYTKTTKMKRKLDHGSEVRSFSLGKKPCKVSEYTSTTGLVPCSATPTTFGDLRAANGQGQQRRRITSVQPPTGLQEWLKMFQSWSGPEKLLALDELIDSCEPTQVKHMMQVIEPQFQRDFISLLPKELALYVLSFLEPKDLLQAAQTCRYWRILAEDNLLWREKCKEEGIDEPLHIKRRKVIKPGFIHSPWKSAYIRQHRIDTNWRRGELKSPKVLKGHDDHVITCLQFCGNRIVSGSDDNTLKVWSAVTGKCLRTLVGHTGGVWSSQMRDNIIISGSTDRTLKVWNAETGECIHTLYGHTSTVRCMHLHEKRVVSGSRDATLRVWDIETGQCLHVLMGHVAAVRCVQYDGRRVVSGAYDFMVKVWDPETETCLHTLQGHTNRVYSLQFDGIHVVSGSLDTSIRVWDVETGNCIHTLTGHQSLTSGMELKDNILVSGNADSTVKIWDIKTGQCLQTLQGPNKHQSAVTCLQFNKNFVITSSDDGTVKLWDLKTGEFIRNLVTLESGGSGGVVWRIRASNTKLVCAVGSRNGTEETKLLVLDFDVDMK
HA-FBXW7β (Q969H0-2, form named): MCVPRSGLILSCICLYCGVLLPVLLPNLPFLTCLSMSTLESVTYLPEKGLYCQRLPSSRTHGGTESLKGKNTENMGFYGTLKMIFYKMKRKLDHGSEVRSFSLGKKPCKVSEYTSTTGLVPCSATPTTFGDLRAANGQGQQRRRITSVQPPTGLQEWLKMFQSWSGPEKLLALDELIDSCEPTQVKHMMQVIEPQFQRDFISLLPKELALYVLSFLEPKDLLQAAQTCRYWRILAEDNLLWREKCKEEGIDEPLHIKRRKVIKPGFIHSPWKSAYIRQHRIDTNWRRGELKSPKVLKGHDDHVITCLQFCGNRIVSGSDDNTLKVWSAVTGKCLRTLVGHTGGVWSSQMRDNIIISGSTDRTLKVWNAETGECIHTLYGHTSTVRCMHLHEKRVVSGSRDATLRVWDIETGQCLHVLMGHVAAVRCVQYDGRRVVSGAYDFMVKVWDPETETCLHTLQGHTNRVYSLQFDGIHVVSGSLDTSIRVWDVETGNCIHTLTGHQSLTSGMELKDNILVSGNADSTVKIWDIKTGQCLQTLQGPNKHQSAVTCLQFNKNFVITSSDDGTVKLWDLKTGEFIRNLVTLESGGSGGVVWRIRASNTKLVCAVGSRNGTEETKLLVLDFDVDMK
Flag-FBXW7γ (Q969H0-4, form named): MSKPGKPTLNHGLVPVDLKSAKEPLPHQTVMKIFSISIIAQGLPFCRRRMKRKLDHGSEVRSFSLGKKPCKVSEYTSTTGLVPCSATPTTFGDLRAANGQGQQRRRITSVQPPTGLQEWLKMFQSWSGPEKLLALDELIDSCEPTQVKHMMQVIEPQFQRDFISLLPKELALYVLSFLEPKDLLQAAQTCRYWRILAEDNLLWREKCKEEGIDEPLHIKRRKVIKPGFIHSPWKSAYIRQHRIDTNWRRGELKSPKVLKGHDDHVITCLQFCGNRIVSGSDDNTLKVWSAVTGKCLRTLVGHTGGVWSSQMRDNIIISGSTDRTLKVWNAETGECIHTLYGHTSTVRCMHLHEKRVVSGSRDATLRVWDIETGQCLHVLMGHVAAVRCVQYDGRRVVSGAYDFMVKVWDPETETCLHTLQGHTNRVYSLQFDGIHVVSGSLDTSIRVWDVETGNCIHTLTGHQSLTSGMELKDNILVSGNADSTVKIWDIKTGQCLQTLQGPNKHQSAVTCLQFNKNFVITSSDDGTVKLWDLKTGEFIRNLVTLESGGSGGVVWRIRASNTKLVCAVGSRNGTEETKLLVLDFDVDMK
UniProt P49327: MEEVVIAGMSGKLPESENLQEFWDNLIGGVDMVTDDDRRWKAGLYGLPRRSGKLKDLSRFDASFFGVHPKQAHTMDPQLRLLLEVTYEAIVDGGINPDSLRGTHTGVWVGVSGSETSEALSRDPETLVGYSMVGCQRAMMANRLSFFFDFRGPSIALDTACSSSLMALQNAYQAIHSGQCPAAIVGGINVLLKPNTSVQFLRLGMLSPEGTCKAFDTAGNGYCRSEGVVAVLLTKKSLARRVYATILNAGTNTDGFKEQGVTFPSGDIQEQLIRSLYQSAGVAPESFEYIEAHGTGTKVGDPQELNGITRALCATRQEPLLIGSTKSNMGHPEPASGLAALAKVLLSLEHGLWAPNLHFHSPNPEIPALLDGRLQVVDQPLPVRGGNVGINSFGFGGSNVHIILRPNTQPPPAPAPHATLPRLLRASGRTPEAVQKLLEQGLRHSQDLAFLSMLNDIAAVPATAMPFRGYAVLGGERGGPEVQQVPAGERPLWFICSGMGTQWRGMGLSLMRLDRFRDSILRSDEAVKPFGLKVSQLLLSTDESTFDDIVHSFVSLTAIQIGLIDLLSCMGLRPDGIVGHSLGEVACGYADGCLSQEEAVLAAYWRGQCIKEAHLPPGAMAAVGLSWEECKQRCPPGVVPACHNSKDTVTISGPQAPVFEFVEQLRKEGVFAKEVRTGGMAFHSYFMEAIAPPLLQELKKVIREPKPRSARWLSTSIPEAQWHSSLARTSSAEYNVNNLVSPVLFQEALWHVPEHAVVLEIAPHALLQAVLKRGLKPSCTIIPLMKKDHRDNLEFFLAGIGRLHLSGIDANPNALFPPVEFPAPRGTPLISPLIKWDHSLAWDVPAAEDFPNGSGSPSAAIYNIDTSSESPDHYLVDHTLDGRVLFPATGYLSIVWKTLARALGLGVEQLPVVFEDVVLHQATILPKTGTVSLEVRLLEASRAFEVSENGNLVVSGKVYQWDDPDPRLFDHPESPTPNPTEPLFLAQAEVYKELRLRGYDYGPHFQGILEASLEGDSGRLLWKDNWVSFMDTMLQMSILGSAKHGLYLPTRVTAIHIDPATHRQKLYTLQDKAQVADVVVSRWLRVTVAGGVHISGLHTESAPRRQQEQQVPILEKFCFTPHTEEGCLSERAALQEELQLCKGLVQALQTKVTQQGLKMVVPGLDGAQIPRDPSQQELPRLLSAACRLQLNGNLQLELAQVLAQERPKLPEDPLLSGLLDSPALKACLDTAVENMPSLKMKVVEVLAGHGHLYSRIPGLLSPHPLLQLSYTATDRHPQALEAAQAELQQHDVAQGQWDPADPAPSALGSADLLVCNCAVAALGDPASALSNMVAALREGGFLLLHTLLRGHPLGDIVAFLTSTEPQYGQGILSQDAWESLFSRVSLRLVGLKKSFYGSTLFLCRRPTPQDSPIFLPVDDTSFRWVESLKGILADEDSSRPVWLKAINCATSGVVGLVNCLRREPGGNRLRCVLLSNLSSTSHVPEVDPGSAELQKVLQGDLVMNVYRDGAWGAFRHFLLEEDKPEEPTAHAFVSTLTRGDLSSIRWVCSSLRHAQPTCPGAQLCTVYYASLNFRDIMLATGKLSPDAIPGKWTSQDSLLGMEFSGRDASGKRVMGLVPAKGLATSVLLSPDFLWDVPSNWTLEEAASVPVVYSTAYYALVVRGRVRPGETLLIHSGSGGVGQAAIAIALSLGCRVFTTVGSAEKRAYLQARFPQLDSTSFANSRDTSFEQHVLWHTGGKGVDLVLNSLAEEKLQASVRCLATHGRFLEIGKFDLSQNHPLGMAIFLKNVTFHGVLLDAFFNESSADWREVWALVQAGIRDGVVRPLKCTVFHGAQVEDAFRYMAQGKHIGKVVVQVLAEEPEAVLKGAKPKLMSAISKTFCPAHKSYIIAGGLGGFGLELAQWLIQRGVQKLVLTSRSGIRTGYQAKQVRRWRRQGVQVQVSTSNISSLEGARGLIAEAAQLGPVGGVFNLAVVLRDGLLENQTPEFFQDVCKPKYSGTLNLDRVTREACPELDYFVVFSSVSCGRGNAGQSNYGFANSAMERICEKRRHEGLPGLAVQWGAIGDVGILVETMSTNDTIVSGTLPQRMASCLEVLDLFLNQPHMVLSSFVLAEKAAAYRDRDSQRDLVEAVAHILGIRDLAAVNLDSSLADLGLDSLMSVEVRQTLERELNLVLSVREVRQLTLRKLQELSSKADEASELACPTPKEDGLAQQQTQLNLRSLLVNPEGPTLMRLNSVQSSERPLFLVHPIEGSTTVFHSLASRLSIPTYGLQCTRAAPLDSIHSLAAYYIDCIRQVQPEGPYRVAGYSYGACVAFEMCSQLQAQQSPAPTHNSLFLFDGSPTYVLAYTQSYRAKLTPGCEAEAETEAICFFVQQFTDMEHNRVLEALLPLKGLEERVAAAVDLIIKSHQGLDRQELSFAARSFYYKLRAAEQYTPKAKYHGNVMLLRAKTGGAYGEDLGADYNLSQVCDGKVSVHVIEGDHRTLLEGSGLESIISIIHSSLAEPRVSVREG
UniProt Q7L5N1: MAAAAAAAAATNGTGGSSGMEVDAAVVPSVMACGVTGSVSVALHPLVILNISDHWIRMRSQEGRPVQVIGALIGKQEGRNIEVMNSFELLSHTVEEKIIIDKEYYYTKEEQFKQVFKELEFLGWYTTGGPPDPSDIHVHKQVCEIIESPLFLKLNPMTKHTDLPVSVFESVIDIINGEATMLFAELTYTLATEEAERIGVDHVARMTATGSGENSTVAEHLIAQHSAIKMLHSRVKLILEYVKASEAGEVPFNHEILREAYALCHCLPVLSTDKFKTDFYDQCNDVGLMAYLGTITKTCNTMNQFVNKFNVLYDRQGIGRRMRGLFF
UniProt P49841: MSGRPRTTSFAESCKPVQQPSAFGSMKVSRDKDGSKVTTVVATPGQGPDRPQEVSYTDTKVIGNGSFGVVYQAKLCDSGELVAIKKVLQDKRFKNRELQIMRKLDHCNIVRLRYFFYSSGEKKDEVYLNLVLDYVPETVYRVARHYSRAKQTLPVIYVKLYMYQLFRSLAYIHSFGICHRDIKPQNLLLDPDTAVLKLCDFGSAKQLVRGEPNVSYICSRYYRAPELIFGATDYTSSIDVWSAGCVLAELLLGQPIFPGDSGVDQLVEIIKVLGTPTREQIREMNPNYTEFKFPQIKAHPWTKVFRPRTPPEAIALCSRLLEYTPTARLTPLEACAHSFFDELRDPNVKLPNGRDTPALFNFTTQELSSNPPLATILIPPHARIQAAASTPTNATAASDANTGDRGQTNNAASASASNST

Key:
[1] = molecular target: Flag-FBXW7β (human) (UniProt Q969H0); assay: co-IP; lysates of transfected HEK293T cells (20 μM MG132 for 6 h before harvest) with anti-Flag M2 agarose beads overnight at 4 °C, washed five times with lysis buffer, immunoblot; in some panels CHIR (4 μM, 12 h or 24 h) or co-expressed HA-GSK3β (S9A)
[2] = molecular target: FBXW7β, endogenous (human (endogenous in HCT 116)) (UniProt Q969H0); assay: co-IP; endogenous proteins; HCT 116 lysate with anti-CSN6 or anti-FBXW7β antibody or control IgG overnight at 4 °C, then Protein A/G agarose beads 4 h at 4 °C, immunoblot
[3] = molecular target: FBXW7β, exogenous (Supplementary Fig. 3a, h, i, l) (human) (UniProt Q969H0); assay: co-IP; exogenous CSN6 and FBXW7β (Supplementary Fig. 3a); tags, beads and cells not shown
[4] = molecular target: FBXW7β, in vitro translated (human) (UniProt Q969H0); assay: co-IP; in vitro immunoprecipitation of proteins made with the TNT Quick Coupled Transcription/Translation system; pulled down with anti-Flag M2 beads or anti-Myc beads, immunoblot
[5] = molecular target: Myc-FASN (human) (UniProt P49327); assay: co-IP; lysates of transfected HEK293T cells with anti-Myc magnetic beads overnight at 4 °C, immunoblot
[6] = molecular target: Flag-FASN (human) (UniProt P49327); assay: co-IP; lysates of transfected HEK293T cells (20 μM MG132 for 6 h before harvest) with anti-Flag M2 agarose beads overnight at 4 °C, washed five times with lysis buffer, immunoblot; in some panels CHIR (4 μM, 12 h or 24 h) or co-expressed HA-GSK3β (S9A)

## CSN6, endogenous (from UniProt Q7L5N1 1-327)
[1]
  binding: binds
[2]
  binding: binds

## CSN6, exogenous (Supplementary Fig. 3a) (from UniProt Q7L5N1 1-327)
[3]
  binding: binds

## CSN6, in vitro translated (from UniProt Q7L5N1 1-327)
[4]
  binding: binds

## Flag-FBXW7α (from UniProt Q969H0-1 1-707)
[5]
  binding: no binding

## Flag-FBXW7β (from UniProt Q969H0-2 1-627)
[5]
  binding: binds

## Flag-FBXW7γ (from UniProt Q969H0-4 1-589)
[5]
  binding: no binding

## HA-FBXW7β (from UniProt Q969H0-2 1-627)
[6]
  binding: binds

## HA-GSK3β (from UniProt P49841 1-420) (enzyme)
[6]
  binding: binds
